These results are taken from PubChem BioAssay AID485344 (National Center for Advancing Translational Sciences (NCATS), 2010).

Hit rate of the full screen: of about 340,000 compounds, about 6,900 (2%) were called active. No stated cut-off is given here; in the data, active means inhibition above about 30%; inactive means below that, where a call was filed. The list shows a part of the results, in another mix than the full data. The source gives no active or inactive call for entries shown without one.

What is called inhibition is the change of the read-out against control, counted positive when it falls.

This experiment deals with D(2) dopamine receptor (Homo sapiens) (UniProt P14416). Put plainly: HTS Assay for Allosteric Antagonists of the Human D2 Dopamine Receptor: Primary Screen for Antagonists. Further: 0% is about no effect. The note with it: HEK293 TREx D2 cells, calcium flux, dopamine EC80; at 10 µM; stronger effect = higher value. The method in brief: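 Inhibition of EC80 dopamine-driven calcium flux, recorded kinetically, defines activity here; cells are a tetracycline-induced HEK293 T-REx line expressing force-coupled D2.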
UniProt P14416, sequence (P14416 whole entry, looked up): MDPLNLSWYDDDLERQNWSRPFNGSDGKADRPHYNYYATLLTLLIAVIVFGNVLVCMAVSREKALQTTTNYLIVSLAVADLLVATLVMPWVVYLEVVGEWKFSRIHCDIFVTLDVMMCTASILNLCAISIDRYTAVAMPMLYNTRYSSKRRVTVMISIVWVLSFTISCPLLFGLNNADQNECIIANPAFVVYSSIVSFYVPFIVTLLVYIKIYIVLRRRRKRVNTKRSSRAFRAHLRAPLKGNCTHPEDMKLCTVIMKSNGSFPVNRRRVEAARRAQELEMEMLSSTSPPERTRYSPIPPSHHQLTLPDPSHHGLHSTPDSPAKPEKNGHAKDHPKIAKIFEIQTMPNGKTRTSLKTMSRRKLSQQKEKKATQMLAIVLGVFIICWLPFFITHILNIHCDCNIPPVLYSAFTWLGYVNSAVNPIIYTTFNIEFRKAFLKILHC
On the technique in general: A change in cytosolic calcium serves as a functional read-out for many receptors and channels.
On to `CC(C)NC(=O)Cc1csc2nc(-c3ccccc3)cn12`, for which the inhibition was -0.503%.
The value for `Cc1noc(Cn2c(=O)c3cc4c(cc3n(CC(=O)Nc3ccc(C(C)C)cc3)c2=O)OCO4)n1` was -4.76%.
Take `CCN(c1ccccc1)S(=O)(=O)c1ccc(NC(=O)c2cc(=O)c3c(C)cc(C)cc3o2)cc1`: the inhibition worked out at 9.74%.
In the case of `COc1cccc(-c2cc(C(F)(F)F)n3nc(-c4ccc(C)cc4)cc3n2)c1` it was 20.7%; in that of `CNS(=O)(=O)c1ccc(NC(=O)c2nc3nc(C)cc(C(F)F)n3n2)cc1`, 5.18%; in that of `Cc1ccc(/C=N\NC(=O)c2ccc3c(c2)OCO3)o1`, active: 32%.
On to `O=C1CCc2cc(S(=O)(=O)NC(C(=O)Nc3ccc(F)cc3)c3ccccc3)ccc2N1` (stereo unspecified), for which the inhibition was 3.06%.
Turning to `Cc1cc(C)c(-c2csc(NC(=O)C3=COCCO3)n2)cc1C`, the inhibition was active: 31.8%.
Take `CCc1cccc(NC(=O)c2cc(S(=O)(=O)N3CCCCCC3)cn2C)c1`: the inhibition worked out at 6.74%.
With `COc1ccccc1N1CCN(C(=O)c2cc3c(s2)-c2ccccc2OC3)CC1`, the inhibition came out at 10.7%.
In the case of `CC(C)(C)C(=O)NC1CC(=O)N(c2ccc3c(c2)OCCO3)C1` (stereo unspecified), the inhibition is -2.88%.
For the molecule `COc1ccccc1NC(=O)c1sc2nc(C)c(C(=O)Nc3ccc(Cl)cc3)c(-c3ccc(Br)cc3)c2c1N`, the inhibition worked out at 12.4%.
In the case of `Cc1ccccc1CN1CCC(CNC(=O)c2cc3ccc4cccnc4c3[nH]2)CC1`, the inhibition stood at 16.8%.
With `O=C1CC(c2nnc(Cc3ccc(F)cc3)o2)CN1c1ccccc1` (stereo unspecified), the inhibition stood at 12.3%.
In the case of `Fc1ccccc1-n1ncc2c1ncn1nc(COc3ccc(Cl)cc3)nc21` it was -4.21%.
Regarding `Cc1cccc(NC(=O)CSc2cn(CC(=O)N3CCC(C)CC3)c3ccccc23)c1C`, the inhibition was 2.24%.
For `CC(=O)c1cccc(NC(=O)Cn2c(-c3cncs3)nc3ccccc32)c1`, the inhibition stood at 0.95%.
The value for `Cc1cccc(N2CCN(S(=O)(=O)c3nnc(NC(=O)c4ccc(Cl)cc4)s3)CC2)c1` was 13.4%; that for `CCOc1ccccc1CNC(=O)C1CCN(c2nnc(C)c3c(C)n(-c4ccc(C)cc4)nc23)CC1` was -8.96%.
As to `O=C(CC1(O)C(=O)N(CCc2ccccc2)c2ccc(Br)cc21)c1ccccc1` (stereo unspecified), the inhibition was -12.2%.
In the case of `CCC1CCCCN1C(=O)CSc1n[nH]c(-c2ccccc2)n1` (stereo unspecified) it was -17%.
For `Clc1ccccc1CN(Cc1ccccc1)C(c1cccs1)c1nnnn1C1CCCC1` (stereo unspecified), the inhibition was active: 50%.
For `CC(=O)Nc1ccc(Nc2nc3ccc(Cl)cc3n3cnnc23)cc1`, the inhibition was 11.5%.
The value for `CNC(=O)c1ccc(-c2nc(CN3CCc4ccccc43)c(C)o2)cc1` was 4.73%; that for `Cc1c(Cl)cccc1NC(=O)C(C)n1nc(C)c2c(C)n(-c3ccccc3)nc2c1=O` (stereo unspecified) was -1.59%; that for `Cc1cccc(OCC(=O)Nc2ccc(OCc3cc(=O)n4cc(C)ccc4n3)cc2)c1` was -21.3%.
In the case of `CCOC(=O)c1cccc(NC(=O)CC2C(=O)N(c3ccccc3)C(=O)N2Cc2ccco2)c1` (stereo unspecified) it was 4.48%; in that of `CCc1ccc2oc(C(=O)Nc3nc(-c4ccc(F)cc4)ns3)c(C)c2c1`, 3.53%; in that of `CN1CCN(c2nc(-c3cccs3)cc(C(F)(F)F)n2)CC1`, active: 31.8%.
As to `Cc1cc2c(n1-c1ccc(C(=O)NCCc3ccc(Cl)cc3)cc1)CCC(C)C2` (stereo unspecified), the inhibition stood at 1.91%.
The value for `COc1ccc(-c2cc(C(F)(F)F)n3nc(C(=O)OC(C)C)cc3n2)cc1` was 14.1%; that for `CN1C(=O)/C(=C\c2ccc(OC(=O)c3ccco3)cc2)SC1=S` was active: 48.1%.
The value for `Cc1c(C2=CCN(S(=O)(=O)c3ccc(Cl)cc3)CC2)c2ccccc2n1CC(=O)N1CCCC1` was -10.8%.
Turning to `COc1ccccc1Oc1nc2c(c(=O)n(C)c(=O)n2C)n1Cc1cccc(Br)c1`, the inhibition worked out at 1.35%.
As to `COCCNC(=O)c1ccc2c(c1)N(Cc1cccc(Cl)c1)C(=O)c1ccccc1S2(=O)=O`, the inhibition is 11%.
`Cc1ccc(OC(=O)c2cc(-c3ccccc3)nc3ccc(C)cc23)cc1`: the inhibition is 0.136%.
As for `CC(=O)N1c2ccc(S(=O)(=O)NCC3CCC(C(=O)NCCC(C)C)CC3)cc2CC1C` (stereo unspecified), the inhibition is -7.72%.
Consider `CC(=O)Nc1ccc(S(=O)(=O)Nc2cccc(-c3ccc(N4CCC(C)CC4)nn3)c2)cc1`, for which the inhibition turned out to be 15.8%.
The value for `COc1ccccc1Nc1nc(N)nc(CN2CCN(c3ccccc3)CC2)n1` was active: 43.6%.
Take `CCOc1ccc(CCNC(=O)CCCc2nnc3n(CC(C)C)c(=O)c4sccc4n23)cc1`: the inhibition was -7.73%.
For `COc1ccc2c(Sc3ccccc3)c(C(=O)NCc3cccc(OC)c3OC)[nH]c2c1`, the inhibition is -0.54%.
In the case of `CCOC(=O)C1(C)C=C(Nc2ccc(C(N)=O)cc2)C(=O)N1c1ccccc1` (stereo unspecified), the inhibition was 16.5%.
In the case of `CCOC(=O)c1cc(S(=O)(=O)Nc2ccc(OC)c(Cl)c2)[nH]n1`, the inhibition was -0.96%.
Regarding `CN1C(=O)Cc2cc(S(=O)(=O)CCC(=O)Nc3cccc(C(F)(F)F)c3)ccc21`, the inhibition came out at 12.8%.
In the case of `CC(C)OCCCn1c(SCc2cccc(Br)c2)nc2c(sc3ccccc32)c1=O` it was -8.03%.
On to `CC(C)(C)C(=O)NC1CCN(C(=O)N2CCCC2)CC1`, for which the inhibition is active: 32.4%.
In the case of `COc1ccc(CCn2cc3c(c2-c2ccccc2Br)c(=O)n(C)c(=O)n3C)cc1OC`, the inhibition was determined as 6.2%.
The value for `CCCc1noc(-c2ccc(N3CCCCC3)c([N+](=O)[O-])c2)n1` was -0.742%.
In the case of `Cc1nc2c(cnn2-c2ccccc2Cl)c(=O)n1-c1ccc(C(C)C)cc1`, the inhibition is -1.08%.
`CCc1ccc(S(=O)(=O)c2nnn3c2nc(NCCc2ccccc2)c2sccc23)cc1`: the inhibition stood at 5.93%.
With `COc1cc(NC(=O)Cn2ncc3c(=O)oc4ccccc4c32)cc(OC)c1OC`, the inhibition is 11.9%.
The value for `COc1cccc(-c2nc(SCC(=O)Nc3ccc4c(c3)OCO4)c(-c3ccccc3)[nH]2)c1` was -16.2%.
In the case of `CN(C)S(=O)(=O)N(CC(=O)NCCSCc1ccccc1Cl)c1ccccc1` it was 12%.
With `Cc1ccc(-c2onc(C)c2C)cc1S(=O)(=O)N1CCCCC1`, the inhibition was determined as 2.08%.
As to `CCOC(=O)c1sc2ccccc2c1S(=O)(=O)Nc1c(C)cccc1C`, the inhibition worked out at 2.95%.
In the case of `O=C(Cn1c(=O)n(-c2ccc(F)cc2)c(=O)c2sc3ccccc3c21)N1CCCC1` it was 14.6%; in that of `CCOC(=O)c1c(N)n(-c2ccc(C)c(C)c2)c2nc3ccccc3nc12`, 6.69%; in that of `COc1cc(CNC(=O)c2cc(-c3ccccc3)n[nH]2)cc(OC)c1OC`, 2.07%.
`Cc1ccccc1NC(=O)CSc1nc(-c2ccc(F)cc2)c2cccc(C)c2n1`: the inhibition was determined as 1.99%.
In the case of `COc1ccc(-n2nc(C(=O)N3CCC(C)CC3)c3c4ccccc4n(C)c3c2=O)cc1Cl` it was -0.386%; in that of `COc1cccc(CNC(=O)Cn2cc3c(n2)-c2c(oc(C(=O)N4CCCC4)c2C)CC3)c1OC`, 4.1%; in that of `CCc1nn(CC(=O)NCCc2ccc(OC)cc2OC)c(=O)c2cc3sccc3n12`, -5.64%.
With `COc1ccc(-c2noc(-c3ccc(NCc4ccc(C)cc4)c([N+](=O)[O-])c3)n2)cc1OC`, the inhibition stood at 21%.
For `Cn1c(=O)c2c(nc(SCC(=O)Nc3ccc(OC(F)(F)F)cc3)n2Cc2cccc(C(F)(F)F)c2)n(C)c1=O`, the inhibition stood at 5.3%.
With `Cc1ccc(S(=O)(=O)Nc2cc3c(cc2C)n(C)c(=O)c(=O)n3C)cc1`, the inhibition is -5.51%.
In the case of `Cc1ccc(CN2CCN(/N=C/c3cccs3)CC2)cc1`, the inhibition was active: 33.8%.
As for `CCOc1ccc(-c2oc3ccccc3c(=O)c2O)cc1OCC`, the inhibition turned out to be 4.87%.
In the case of `CCCS(=O)(=O)c1ncc(Cl)c(C(=O)N(Cc2ccccc2)Cc2ccco2)n1`, the inhibition is 20.9%.
In the case of `Cc1ccsc1/C=N/NC(=O)c1ccc2ccccc2c1`, the inhibition is active: 41.4%.
In the case of `COc1ccccc1NC(=O)N1CC(=O)Nc2sc3c(c2C1c1ccccc1)CCCC3` (stereo unspecified) it was 11.2%; in that of `O=C(Nc1ccc(S(=O)(=O)Nc2ccccc2)cc1)N1CCCC1`, -17.6%.
The value for `CC1(C)Nc2ccc(O)cc2-c2c1ssc2=S` was active: 35.8%.
Turning to `COc1ccccc1NC(=O)C1=C(C)Nc2c(C(=O)Nc3ccc(F)cc3)cnn2C1c1ccc(Cl)cc1` (stereo unspecified), the inhibition turned out to be 7.65%.
As for `O=C(NCc1ccc2c(c1)CCN2C(=O)c1ccc(F)cc1)c1ccc(Br)o1`, the inhibition was -22.7%.
Turning to `COCCCN1C(=O)N(c2ccccc2)C(=O)C1CC(=O)Nc1ccc(F)cc1` (stereo unspecified), the inhibition was 15%.
For `COc1cc(OC)cc(C(=O)Nc2cc3nn(-c4ccccc4)nc3cc2Cl)c1`, the inhibition was determined as 1.88%.
Take `Cc1ccccc1CSc1cn(CCNC(=O)c2cccs2)c2ccccc12`: the inhibition is -6.84%.
The value for `COC(=O)c1ccc(C2Nc3c(C)cc(C)cc3C3C=CCC32)cc1` (stereo unspecified) was -2.44%; that for `CCC(O)c1nc2ccccc2n1Cc1cccc(Cl)c1` (stereo unspecified) was -4.17%.
In the case of `Nc1nonc1-n1nnc(C(=O)N/N=C/c2ccc(Br)cc2)c1-c1ccc2c(c1)OCO2`, the inhibition was active: 41.3%.
On to `CCOC(=O)Cc1ccc(NC(=O)n2ncc3c(C)cccc32)cc1`, for which the inhibition turned out to be 5.55%.
Turning to `CCOC(=O)c1c(C)oc2nc(C)nc(Nc3cccc(OC)c3)c12`, the inhibition was determined as 12.6%.
Regarding `COc1ccc(OC)c(NC(=O)c2cc(-c3ccc(C)cc3O)n[nH]2)c1`, the inhibition is active: 32.2%.
As to `COc1cc(C(=O)O/N=C2\C=CC(=O)C=C2C)cc(OC)c1OC`, the inhibition was active: 49.8%.
Take `CCOc1ccc(CC(=O)Nc2c(C(=O)c3ccc(F)cc3)oc3ccccc23)cc1OCC`: the inhibition is -8.22%.
As for `COc1cccc(CNC(=O)CCc2nnc3n(C)c(=O)c4sccc4n23)c1`, the inhibition was -9.12%.
As for `CCCN(CCC)CCCNC(=O)C1CCC(CNS(=O)(=O)c2ccc(NC(C)=O)cc2)CC1` (stereo unspecified), the inhibition was -0.362%.
On to `COc1ccc(NC(=O)Cn2c(CCC(=O)O)ccc2-c2ccccc2)cc1Cl`, for which the inhibition is -8.17%.
For `CC(=O)Nc1ccc(NC(=O)CC2Sc3ccccc3NC2=O)cc1` (stereo unspecified), the inhibition is -5.78%.
As for `Cc1ccc(Cl)cc1N1CCN(C(=O)c2cc(S(=O)(=O)N3CCC(C)CC3)cn2C)CC1`, the inhibition was 19%.
As for `CCOc1ccc(CNC(=O)C2CCN(S(=O)(=O)c3c(C)noc3/C=C/c3ccc(C)cc3)CC2)cc1OC`, the inhibition is 3.23%.
Regarding `O=C(CCN1CCC(c2ccccc2)C1)c1ccc2c(c1)OCCO2` (stereo unspecified), the inhibition is active: 86.7%.
With `COc1ccc(NC(=O)CSc2nc3nc(C)cc(C)n3n2)cc1`, the inhibition is -2.92%.
In the case of `Cc1c(CNCc2ccc(Cl)cc2)c(C(=O)O)c(C)n1Cc1ccc(F)cc1` it was -4.6%; in that of `CCOc1ccc(CNS(=O)(=O)c2ccc3[nH]c4c(c3c2)CCCC4)cc1OC`, -0.392%; in that of `COc1ccc2oc(=O)cc(CN3CCN(C(=O)c4ccccc4F)CC3)c2c1`, 7.13%.
